The structures appear in SMILES notation. About 800 (1.6%) of roughly 50,000 compounds showed an effect of 50% or more. The list shows a part of the results.

From PubChem BioAssay AID1240 (Sanford-Burnham Center for Chemical Genomics, 2008) come the findings set out here.

This test addresses Bcl-2-like protein 10 (Homo sapiens) (UniProt Q9HD36). Briefly: TR3 peptide-Bcl-B binding displacers, biochemical primary FP assay, phenotype converters (AID 1240).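 Further: 0% = Bcl-B with tracer peptide and DMSO and 100% = tracer peptide lacking Bcl-B.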 The note with it: GST-Bcl-B / FITC-TR3 peptide fluorescence polarization; stronger effect = higher value; compound at 3.75 mg/L. For orientation: Polarisation of emitted light reports the rotation of a fluorescent probe.
UniProt Q9HD36, sequence (Q9HD36 whole entry, looked up): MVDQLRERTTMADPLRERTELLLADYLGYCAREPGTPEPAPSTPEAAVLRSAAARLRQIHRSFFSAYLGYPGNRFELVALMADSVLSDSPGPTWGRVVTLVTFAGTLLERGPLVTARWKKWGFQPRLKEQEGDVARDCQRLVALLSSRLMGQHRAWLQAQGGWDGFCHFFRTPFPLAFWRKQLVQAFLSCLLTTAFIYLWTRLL
As for `Cc1sc(NC(=O)c2ccc(F)cc2)c(C(N)=O)c1C`, the displacement is -4.9%.

In the case of `COc1ccc(OC)c(C2/C(=C(/O)c3ccccc3)C(=O)C(=O)N2c2cccc([N+](=O)[O-])c2)c1` (configuration not stated), the displacement is -0.1%. Next, `CC1CCN(c2cc(N3CCC(C)CC3)c([N+](=O)[O-])cc2/C=C(\C#N)c2nn(-c3ccccc3)c(N)c2C#N)CC1`: 8.4%; `Cc1ccc(C(=O)Nc2nn[nH]n2)cc1`: 3.4%; `NC1=NC(=O)C(CC(=O)Nc2ccc(C(=O)O)cc2)S1` (configuration not stated): -10.5%. In the case of `O=[N+]([O-])c1ccccc1-c1nc(-c2cccnc2)no1`, the displacement is -1%. Take `Cc1cc(-c2ccccc2)nc2cc(-c3ccc(Cl)cc3)nn12`: the displacement was -5.4%. As to `Cc1cc(C)nc(SCCN2CCCCC2)n1`, the displacement is -15.1%.

Consider `COc1cccc(OCC(=O)NNC(=O)c2ccccc2C)c1`, for which the displacement is -9%.

As for `Cc1ccc(NC(=O)C(=O)NCCN2CCN(S(=O)(=O)c3ccc([N+](=O)[O-])cc3)CC2)cc1`, the displacement was 15%. For `Ic1ccccc1NCn1nnc2ccccc21`, the displacement is -12.8%.

With `COc1cc(NC(=O)COc2cccc(C)c2)c(C(=O)O)cc1OC`, the displacement came to 11.1%.

Consider `C/C(=N\OC(=O)Nc1ccccc1)c1ccccn1`, for which the displacement is -8.2%. Turning to `OC(CNCC1(c2ccccc2)CCCC1)COc1ccccc1` (configuration not stated), the displacement was -1.3%. Regarding `C=CCNC(=O)c1ccc(-c2ccc(Cl)cc2Cl)o1`, the displacement turned out to be 13.1%. Turning to `CCCCNCCOc1cc(C)c(Cl)c(C)c1`, the displacement was 2.6%. Consider `CC(C)NS(=O)(=O)c1ccc(Br)cc1`, for which the displacement was -7.4%. With `O=C1NC(=O)N(c2ccc(Cl)cc2)C(=O)/C1=C/c1ccc(O)c(Br)c1`, the displacement was -8.4%. With `CCOc1cc(/C=C2\SC(=S)N(CC(=O)OC)C2=O)ccc1O` the figure was 122%; with `Cc1ccc2nc(-c3ccc(NC(=O)c4ccc5c(c4)OCCO5)cc3)sc2c1`, 73.2%.

On to `Cc1ccc(NC(=S)NC(=O)c2sc3ccccc3c2Cl)cc1`, for which the displacement was 6%. Take `COc1cc(Br)cc(/C=N/NC(=O)COc2cccc(Cl)c2)c1O`: the displacement worked out at 30.2%.

For the molecule `COc1ccc(NC(=O)C(=O)NCCCN2CCOCC2)cc1`, the displacement was -6.5%. Consider `CC1(C)COC(=O)/C1=N/Nc1ccc([N+](=O)[O-])cc1`, for which the displacement is -0.2%. On to `O=C(NNC(=O)c1ccc(Cl)c([N+](=O)[O-])c1)c1cccc(Br)c1`, for which the displacement was -11.3%. On to `CC(=O)c1c(C(C)=O)c(C)n(-c2ccccc2N)c1C`, for which the displacement was 1.8%.

As to `CCOc1ccccc1NC(=O)CSc1ccccn1`, the displacement is -10.7%. For the molecule `COc1cc2ccccc2cc1C(=O)Nc1ccc(Cc2ccncc2)cc1`, the displacement was -61.9%. With `O=[N+]([O-])c1cccc(-c2nnc(-c3cccc(F)c3)o2)c1` the figure was 13.1%. As to `COc1ccc(C2CC(C(F)(F)F)n3nc(C(=O)Nc4ccc(F)cc4F)c(Cl)c3N2)cc1OC` (configuration not stated), the displacement is -1.2%. For the molecule `COc1ccc(C2SCC(=O)N2c2c(C)n(C)n(-c3ccccc3)c2=O)cc1OC` (configuration not stated), the displacement was -10.3%.

Turning to `Cc1ccc2oc(-c3ccc(NC(=O)COc4ccccc4)cc3O)nc2c1`, the displacement was -22%. With `Cc1ccc(C=Nc2ccc(I)cc2)o1` the figure was -9.1%; with `Cc1ccc(S(=O)(=O)/N=C2\C=CC(=O)C(Br)=C2)cc1`, -3.5%. With `O=C(Nc1ccccc1)Nc1ncccn1` the figure was 13%; with `CCNC(=S)NNC(=O)CCn1c2ccccc2c2ccccc21`, -12.5%; with `COC(=O)Nc1ccc(S(=O)(=O)N2CCN(c3ccccc3OC)CC2)cc1`, -11.1%.

On to `CCC12CN3CC(CC)(CN(C1)C3c1ccc(Br)cc1)C2=O` (configuration not stated), for which the displacement turned out to be 10.1%. Turning to `Cc1ccc(NC2=C(Cl)C(=O)N(c3ccccc3Cl)C2=O)c(C)c1`, the displacement came out at 1.9%. Next, `CCOc1ccc(N2C(=O)CC(N(Cc3ccco3)C(=O)c3ccc(Cl)cc3)C2=O)cc1` (configuration not stated): -8%; `COc1ccc(C2CC(=O)C3=C(C2)Nc2ccccc2NC3c2ccc(C)c([N+](=O)[O-])c2)cc1OC` (configuration not stated): -5.1%; `Cc1nc2ccc(Cl)cn2c1C(=O)N/N=C\c1ccc(C(=O)O)cc1`: -3.1%. With `O=C(CN1C(=O)/C(=C\c2ccccc2F)SC1=S)Nc1nc2ccccc2s1` the figure was 7.3%; with `CN(C)c1ccc(C(O)C(C)(O)c2nc3ccccc3n2C)cc1` (configuration not stated), 6.1%. As for `O=C1CN(C(=O)CNC(=O)c2ccccc2)CC(=O)N1`, the displacement is -3%.

With `CCCCS(=O)CC(O)COCC` (configuration not stated), the displacement is -14%.

On to `COc1cccc(OCCCCOc2ccccc2OC)c1`, for which the displacement amounted to 8.4%.

Take `COc1ccc(NC(=O)c2cc3cccc(OC)c3oc2=O)c(OC)c1`: the displacement was found to be 1.8%. As for `Cc1cc(C)cc(OCC(=O)N2CCN(c3ccc([N+](=O)[O-])cc3)CC2)c1`, the displacement was -3.5%.

With `CC(C)(C)c1cc(C(C#N)C#N)c(C(C)(C)C)c(O)c1O`, the displacement was determined as 33.5%.

In the case of `COc1ccc(NC(=O)/C=C/c2ccc(C)o2)cc1`, the displacement stood at 14.7%.

With `CC1=C(C(=O)OCC2CCCO2)C(c2ccccc2)NC(=O)N1` (configuration not stated), the displacement worked out at 2.5%. For `Cc1cc(NC(=O)CSc2ccccn2)no1`, the displacement was found to be 13.8%. In the case of `Clc1ccc(C=NN2CCN(Cc3ccccc3)CC2)cc1Cl`, the displacement was -6.7%. As to `Nc1ccc(-c2nc3ccc(-c4nc5ccccc5o4)cc3[nH]2)cc1`, the displacement was found to be 0.8%. Regarding `C=C(C)CNC(=S)Nc1sc2c(c1C(=O)OCC)CCCC2`, the displacement came to 1.6%. For `O=C(COc1ccc(Cl)cc1Cl)Nc1ccc(NC(=O)c2ccco2)cc1`, the displacement was -2.4%.

As to `COc1cc(C2NC(=O)c3c(sc4c3CCN(C)C4)N2)cc(OC)c1OC` (configuration not stated), the displacement amounted to 3.2%.

For the molecule `O=C(Cc1ccc([N+](=O)[O-])cc1)NCc1ccccn1`, the displacement is 14.1%. In the case of `CC1=NN(C(=O)C(C)C)C(C)(NNC(=O)C(C)C)C1` (configuration not stated), the displacement was determined as 2.9%. For `O=C(N/N=C/c1ccncc1)c1[nH]c2ccc([N+](=O)[O-])cc2c1-c1ccccc1`, the displacement is -4.2%.

Turning to `CCC(=O)N1N=C(c2cccc([N+](=O)[O-])c2)CC1c1ccc(OC)cc1` (configuration not stated), the displacement came out at 4.5%. As to `O=C(c1ccc(I)cc1)N1CCN(c2ccc([N+](=O)[O-])cc2)CC1`, the displacement stood at 8.9%. For `Cc1cc(Cl)ccc1OC(C)C(=O)NCCc1ccccc1` (configuration not stated), the displacement was -3%. On to `NC(=O)CSc1nc2ccccc2n1Cc1ccccc1`, for which the displacement was -0.9%. With `Cc1ccc(-c2cc(-c3ccccc3)nc(N/N=C/c3ccc(O)cc3O)n2)cc1` the figure was -9.3%; with `Cc1ccc(N2CCOCC2)c2c1C(=O)c1ccccc1C2=O`, -2.3%; with `Cc1ccc(N2NC(=O)/C(=C/c3ccc(O)c([N+](=O)[O-])c3)C2=O)cc1`, 0.3%.

For the molecule `Cn1cccc1CN1CCN(Cc2ccccc2)CC1`, the displacement amounted to 26.1%. For the molecule `O=C(NCCOc1ccccc1Cl)c1ccc2c3c(cccc13)CC2`, the displacement was -9.9%. As for `CC(Sc1nc2ccc(Br)cc2c(=O)n1-c1ccccc1)c1ccccc1` (configuration not stated), the displacement was found to be 5.1%. For `Cc1oc2c(CN(CC(C)C)CC(C)C)c(O)ccc2c(=O)c1-c1nc2ccccc2s1`, the displacement was found to be 12.7%.
